According to PubChem BioAssay AID1030 (National Center for Advancing Translational Sciences (NCATS), 2008):
Screen size: about 220,000 compounds; about 16,000 (7.3%) were called active. Inconclusive means that the source gave no clear call. Such entries were picked first, then a sample of the others. The call rests on the fitted dose curve; in most records, active means well fitted inhibition curve with a large enough effect (not every such curve was filed as active); inconclusive means small, poorly fitted or top-dose-only effect, or another doubt; inactive means no such curve, though single readings can be large or run the other way. No potency is given beside an inconclusive call; the fits are too rough.

Target: Aldehyde dehydrogenase 1A1 (Homo sapiens) (UniProt P00352)
Experiment: qHTS Assay for Inhibitors of Aldehyde Dehydrogenase 1 (ALDH1A1)
Settings: Purified ALDH1A1, NADH fluorescence, propionaldehyde substrate; series mostly up to 75.3 µM
Potency means the concentration at half of the fitted maximal effect; tags describe the fitted curve by direction and shape.

Sequence of UniProt P00352 (P00352 whole entry, looked up): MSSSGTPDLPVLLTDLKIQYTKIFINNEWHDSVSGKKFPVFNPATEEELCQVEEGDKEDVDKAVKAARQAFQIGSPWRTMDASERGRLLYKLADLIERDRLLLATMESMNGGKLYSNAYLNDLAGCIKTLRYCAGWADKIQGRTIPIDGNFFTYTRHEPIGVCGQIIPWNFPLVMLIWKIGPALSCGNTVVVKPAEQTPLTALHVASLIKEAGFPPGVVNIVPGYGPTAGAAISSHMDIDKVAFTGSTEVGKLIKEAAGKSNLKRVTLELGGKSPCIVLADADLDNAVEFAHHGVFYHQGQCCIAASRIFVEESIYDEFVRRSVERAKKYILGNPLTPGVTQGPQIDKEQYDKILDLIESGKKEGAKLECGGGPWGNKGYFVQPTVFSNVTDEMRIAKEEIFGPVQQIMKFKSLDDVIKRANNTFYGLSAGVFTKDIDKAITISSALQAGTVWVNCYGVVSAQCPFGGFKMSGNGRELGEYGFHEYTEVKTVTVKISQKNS

Row | SMILES | Potency
1 | ClCc1csc(-c2ccc(Cl)cc2)n1 | inactive
2 | C(=N\c1nc2ccccc2[nH]1)/c1cccs1 | inconclusive [inhibitor, single point]
3 | Cc1ccc(NC2c3ncccc3C(=O)N2Cc2cccs2)cc1C (stereo not given) | inconclusive [inhibitor, single point]
4 | CC(=O)c1ccc(C)cc1OC(=O)c1cccc(F)c1 | inconclusive [inhibitor, single point]
5 | Cc1ccc(C(=O)N/C(=C\c2ccco2)C(=O)NCCCn2ccnc2)cc1C | active: 25.1 µM
6 | CCCc1cc(=O)oc2cc3occ(C)c3cc12 | inconclusive [inhibitor, partial curve]
7 | O=C1C(C=NC2CC2)=C(O)c2ccccc21 | inconclusive [inhibitor, single point]
8 | Cc1ccc(NS(=O)(=O)c2ccc(CCC(=O)O)cc2)cc1 | inconclusive [inhibitor, single point]
9 | CCn1c(SCc2ccccc2)nnc1C1CCN(S(=O)(=O)c2ccc(OC)cc2)CC1 | active: 5.01 µM
10 | O=C(NNc1nc(-c2ccccc2)c2cc(Br)ccc2n1)c1ccc(S(=O)(=O)N2CCOCC2)cc1 | inactive
11 | CN(Cc1cccc(Cl)c1Cl)c1ccc(S(=O)(=O)N2CCCCC2)cc1[N+](=O)[O-] | inconclusive [inhibitor, partial curve]
12 | C=CCN1C(=O)C(C)(C)N(C(C)=O)c2ccccc21 | inactive
13 | CC(=O)N1[C@H](Cc2ccccc2)C=C[C@]1(C)C(=O)NCCc1c[nH]c2ccccc12 | inconclusive [inhibitor, partial curve]
14 | COc1cccc(-c2[nH]nc3c2C(c2ccc(C)o2)C(C#N)=C(N)O3)c1 (stereo not given) | inactive
15 | COc1cccc(-c2nnc(-c3ccco3)o2)c1 | inconclusive [inhibitor, single point]
16 | C=CCOc1c(OC)cc(Cl)cc1C1NC(=O)NC(C)=C1C(C)=O (stereo not given) | inactive
17 | Cc1cc(C)n(-c2nnc(Cl)c3ccccc23)n1 | active: 3.55 µM
18 | COCc1cc(=O)[nH]c(/N=C(\N)Nc2ccc(Oc3ccccc3)cc2)n1 | inconclusive [inhibitor, single point]
19 | O=[N+]([O-])c1ccc(N2CCN(c3ccc(O)cc3)CC2)c(Cl)c1 | active: 7.94 µM
20 | CCn1c(-c2ccc(C(C)(C)C)cc2)n[nH]c1=S | inconclusive [inhibitor, single point]
21 | COc1ccc(NC2CC(=O)N(c3cccc([N+](=O)[O-])c3)C2=O)cc1 (stereo not given) | inconclusive [inhibitor, single point]
22 | Cc1cc(NC(=O)COC(=O)CCCOc2ccc(Cl)cc2C)no1 | inconclusive [inhibitor, single point]
23 | COc1ccc(C(=O)NCCSc2ccccc2)cc1 | inconclusive [inhibitor, single point]

Row | SMILES | Potency
24 | CCCCn1nnc(NC(=O)c2ccc(-c3cccc(Cl)c3)o2)n1 | inconclusive [inhibitor, partial curve]
25 | CC(=O)Nc1nnc(SCc2ccc(C(=O)Nc3ccccc3F)cc2)s1 | inconclusive [inhibitor, single point]
26 | COc1ccc(OCCC(=O)OCC(=O)NCc2ccco2)cc1 | inconclusive [inhibitor, single point]
27 | COc1ccc(-c2cn3c(C)c(C(=O)NCCN4CCOCC4)sc3n2)cc1 | inconclusive [inhibitor, single point]
28 | CC(=O)Nc1ccc(Nc2ccc(N3C(=O)CCCC3=O)cc2[N+](=O)[O-])cc1 | inconclusive [inhibitor, single point]
29 | CCOC(=O)c1c(C)c(C(=O)Nc2ccc(N(C)C)cc2)c(C)n1CC | inconclusive [inhibitor, single point]
30 | Cc1ccc(C)c(NC(=S)N/N=C/C(C)c2ccccc2)c1 (stereo not given) | inconclusive [inhibitor, single point]
31 | CN(C)c1ccc(/C=N/Nc2ccc(-n3ccnc3)nn2)cc1 | active: 7.94 µM
32 | O=[N+]([O-])c1ccc(N/N=C/c2sc(N3CCOCC3)nc2-c2ccccc2)c(S(=O)(=O)Nc2ccc(Cl)cc2)c1 | inactive
33 | CN(CCC#N)C(=O)CSc1nc2scc(-c3ccccc3)c2c(=O)[nH]1 | inconclusive [inhibitor, single point]
34 | Cc1ccc(S(=O)(=O)C2C(=O)NC3(C)CC2c2ccccc2O3)cc1 (stereo not given) | inconclusive [inhibitor, single point]
35 | COc1ccc(/C(O)=C/c2nc3ccccc3n(-c3ccccc3)c2=O)cc1 | inconclusive [inhibitor, full curve]
36 | O=C(O)C(Cc1c[nH]c2ccccc12)N1Cc2ccccc2C1=O (stereo not given) | inactive
37 | CCC(C(=O)Nc1cccc(C(F)(F)F)c1)c1ccccc1 (stereo not given) | inconclusive [inhibitor, single point]
38 | O=C(O)c1ccccc1Nc1ccc([N+](=O)[O-])cc1 | inactive
39 | CCOc1ccccc1OCC(=O)NCc1ccco1 | inconclusive [inhibitor, single point]
40 | CC(Oc1ccccc1)C(=O)Nc1cccc([N+](=O)[O-])c1 (stereo not given) | inactive
41 | COc1ccccc1N1CCN(c2cc(=O)n(-c3ccccc3Cl)c(=O)[nH]2)CC1 | inconclusive [inhibitor, single point]
42 | C=C(C)[C@@H]1CCC2(C(=O)O)CC[C@]3(C)[C@H](CC[C@@H]4[C@@]5(C)CCC(=O)C(C)(C)[C@@H]5CC[C@]43C)[C@@H]12 (stereo not given in full) | inactive
43 | COc1cc(C2Nc3ccccc3C(=O)N2c2ccc3c(c2)OCCO3)ccc1OCC(C)C (stereo not given) | inconclusive [inhibitor, partial curve]
44 | CCc1ccccc1NC(=S)NN | inconclusive [inhibitor, single point]
45 | CCC(c1nnnn1CCc1ccccc1)N(Cc1ccco1)Cc1cc2c(C)ccc(C)c2[nH]c1=O (stereo not given) | active: 22.4 µM
